The other results are listed elsewhere or left out.
Tests used:
HSkMC = human skeletal muscle cells; test: cytotoxicity call (relative viability < 0.9); conditions: 10 µM
S. aureus RN4220 = test: growth inhibition call (relative growth <= 0.2); conditions: 50 µM

| Structure (SMILES) | cytotoxicity call (HSkMC) | growth inhibition call (S. aureus RN4220) |
| --- | --- | --- |
| O=S(=O)(NCCCN(CCCc1ccccc1)CCCc1ccccc1)c1cccc2cnccc12 | inactive | inactive |
| C[C@@H]1CN([C@H](C)CO)C(=O)Cc2cc(NS(=O)(=O)c3ccc(Cl)cc3)ccc2O[C@H]1CN(C)S(C)(=O)=O | inactive | inactive |
| Cc1ccc(S(=O)(=O)Nc2ccc3c(c2)C(=O)N([C@@H](C)CO)C[C@@H](C)[C@@H](CN(C)S(=O)(=O)c2c(C)noc2C)O3)cc1 | inactive | inactive |
| COc1cc(Nc2c(C#N)cnc3cc(OCCCN4CCN(C)CC4)c(OC)cc23)c(Cl)cc1Cl | inactive | inactive |
| Cc1cc2n(n1)CCN(C(=O)[C@H]1CC[C@@H](N)C1)C2 | inactive | inactive |
| O=C(O)/C=C/c1cnc[nH]1 | inactive | inactive |
| C[C@@H]1CN([C@@H](C)CO)S(=O)(=O)c2ccc(C#Cc3ccncc3)cc2O[C@H]1CN(C)C(=O)c1ccncc1 | inactive | inactive |
| C[C@H]1CN([C@@H](C)CO)C(=O)c2cccc(NS(=O)(=O)c3ccc(Cl)cc3)c2O[C@@H]1CN(C)Cc1ccc(C(F)(F)F)cc1 | inactive | inactive |
| C[C@H](CO)N1C[C@H](C)[C@H](CN(C)S(=O)(=O)c2cccc(F)c2)Oc2ncc(C#CC3CCCC3)cc2C1=O | inactive | inactive |
| COc1ccc(NC(=O)Nc2ccc3c(c2)C(=O)N([C@@H](C)CO)C[C@@H](C)[C@@H](CN(C)S(=O)(=O)c2ccc(C)cc2)OCCCC[C@H](C)O3)cc1 | inactive | inactive |
| O=C(OC1Cc2c(O)cc(O)cc2OC1c1cc(O)c(=O)c2c(O)c(O)cc(C3Oc4cc(O)cc(O)c4CC3O)c2c1)c1cc(O)c(O)c(O)c1 (configuration not stated) | inactive | inactive |

— the antibiotic and cytotoxicity screens of Wong et al. (2023)
